# Assay results: article PMC12136788
# The other results are listed elsewhere or left out.
# T1: UNK ZnF1-3 (human, UniProt Q9C0B0 31-174)
# T1 sequence: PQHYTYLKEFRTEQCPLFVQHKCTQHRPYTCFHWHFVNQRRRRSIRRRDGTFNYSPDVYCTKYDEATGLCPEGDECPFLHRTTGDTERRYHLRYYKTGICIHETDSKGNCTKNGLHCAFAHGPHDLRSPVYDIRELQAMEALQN
# B1: chr7:151048522:151048523:+_ENSG00000013374_ENST00000566856|hu_mus|hu_hu_hu_mus_True|1_58 (ssRNA)
# RNA: GGGAGUUCUACAGUCCGACGAUCCUGUUUCUUAUUUAUUACGAUCUUGAUGUAAUUUUCUUGAAAUCCGAAAGUUUCAGCUAUUUUACACCUCAGGUCUCUACCAGUGACAUGCAAGCGGGUCUCCAACAAGCUUUUCCUAUCCAACAGAGGAUUGAGCAUCA
# B2: chr1:90180218:90180219:+_ENSG00000171488_ENST00000370454|hu_hu|FALSE|FALSE (ssRNA)
# RNA: GGGAGUUCUACAGUCCGACGAUCACAUGUGAUGGAAAAAUACUGUAAACUUUGUAGAACUCCAAUUUCAGGGGGGAUAAAUCGAAUGUCAUUGUACGAUAAGUCCAAGUAUCGGAUCUUGUUGCAUAGGAAGAGGUGGGAAGGCAACAGAGGAUUGAGCAUCA
# B3: chr1:163117127:163117128:-_ENSG00000143248_ENST00000313961|hu_mus|hu_hu_hu_mus_False|48_88 (ssRNA)
# RNA: GGGAGUUCUACAGUCCGACGAUCUGCUACAAAGGAUGUAACUCAACACUCACAGGAACUUUUGGAAGCCUGACCAGAUGACUACUUGAUUAACUCCUUAUAAAAUUCAGAGCGCACAAAGCGGGGCAGAGAAUCCUUCUCCAUCAACAGAGGAUUGAGCAUCA
# B4: chr1:89687925:89687926:+_ENSMUSG00000026289_ENSMUST00000027512|mus_mus|motif|central (ssRNA)
# RNA: GGGAGUUCUACAGUCCGACGAUCUUUUCUGGGAGGACACAUCAUUCUCCAAGAUGGGCCGUGGGGUCCCACGGUGCUCCGGAGGGUGCAGCAUCAAGGCUGUGCCCACAGCACAGCUCUGCUUCCUUUGUCCACACUGACAACCAACAGAGGAUUGAGCAUCA
# B5: 11932039_11935560_1758_CDS_ENSG00000134324_ENST00000256720|human|control|control (ssRNA)
# RNA: GGGAGUUCUACAGUCCGACGAUCAGCCAAGCACUGCUCUGGCUUACUUUCCUCCUUGAUUGUGGUGUUUCUUCCCCUCCAUGAAAACCACCAUCUUCCUCCCUUUUUGGGCAUUUUAUCCCUCAUGAUAGAUUCCACAGUGGCCAACAGAGGAUUGAGCAUCA
# B6: chr17:5392700:5392701:+_ENSG00000167842_ENST00000573759|hu_mus|motif|central (ssRNA)
# RNA: GGGAGUUCUACAGUCCGACGAUCGCUCUGAAGUUUUCUGCAGCUCUGGACCAGGGAUGCCAAACUCUCCCUAAAGUUACGGGUUCCUUGAUAUCUGCCGAUGUUUUCAAGCUCAUCAAAGAAAGUCAAGGUCUCUCUGAGUUUCAACAGAGGAUUGAGCAUCA
# B7: chr3:150289932:150289933:+_ENSG00000144895_ENST00000460851|hu_hu|hu_hu_hu_mus_False|18_108 (ssRNA)
# RNA: GGGAGUUCUACAGUCCGACGAUCCUUGUAGUUUUUCACAUCCCAUACUUCCAUUUGUCCUCGAAGAUUUCCAAAUCCAGCCAGCACUAAUAUAUGUCCAUGAGGGCUAUAGAAGGCUGCAUUACGAGGACCAGUCCCAAAGUCCAACAGAGGAUUGAGCAUCA
# B8: chr4:148551591:148551592:-_ENSMUSG00000063077_ENSMUST00000060537|mus_hu|mus_mus_mus_hu_False|8_108 (ssRNA)
# RNA: GGGAGUUCUACAGUCCGACGAUCACCUUACAAAAUUAAAUAUCCCUGUAAAUUAGACAAUAAGCAGCAGGCAACAAAGUCUUUGCUUUGGAAUAUGUGCCAGGAAAAGUCAUCUUGUUUUUAGAUCACACCUUUCAGUUCACACAACAGAGGAUUGAGCAUCA
# B9: chr7:141438946:141438947:+_ENSG00000106028_ENST00000265304|hu_mus|hu_hu_hu_mus_True|1_108 (ssRNA)
# RNA: GGGAGUUCUACAGUCCGACGAUCGACUACCUGUAAUUAACACAGGUCUUCGAAACAUGGCUUCUGUUUUUCUUACAACCUAAUCUUUAGGCUUUUCCUAAAGGAAAGAAAGAAAAGAGAAAAAUGAUAAAUCAAGAACUUCCGCAACAGAGGAUUGAGCAUCA
# B10: chr10:75834556:75834557:+_ENSG00000035403_ENST00000372755|perfect_dup|FALSE|FALSE (ssRNA)
# RNA: GGGAGUUCUACAGUCCGACGAUCGUUAAUUUCAGCACUCAUCUUUUCUACAGUAAAAUUUCGAUUUUUCAAAGCUUCUUCUAUUCCUUGGUUUUUUGAGUUUUUGGUUGUAACAAAAAUCUUCAUAGCUGAAAUGAGAACAGGCAACAGAGGAUUGAGCAUCA
# B11: chr2:191769783:191769784:+_ENSG00000115419_ENST00000338435|hu_hu|FALSE|FALSE (ssRNA)
# RNA: GGGAGUUCUACAGUCCGACGAUCAACAUAUCGAUGCACAUAUUCAGUUCCAAGAUCAUUAACAGCAAUGGCAUAUUUCAAAGGUUUUACACAGGACUGAAGACAGAAGGGAACUUUGGUAUCUCCAGUAGAAUGCCUCUGUCCCAACAGAGGAUUGAGCAUCA
# B12: chr2:166767530:166767531:+_ENSMUSG00000002718_ENSMUST00000002790|mus_mus|motif|central (ssRNA)
# RNA: GGGAGUUCUACAGUCCGACGAUCAAAUAUUUCUUGUAAUGCUAGUGCCCCAUACUUAAUGCAAUAUAAGUUAAUAAACACGGAGAAACUCUUGAUAAACUUGGUGGUCUUGGAGUUUUGCAGUCUCUGGAAUAGUAGAAUGAACAACAGAGGAUUGAGCAUCA
# B13: chrX:77158196:77158197:+_ENSG00000131174_ENST00000481445|hu_hu|FALSE|FALSE (ssRNA)
# RNA: GGGAGUUCUACAGUCCGACGAUCUCCGACUUGUGUUGCUACAUAUGUCCAUGUAACAAUACAGAAAGUGGCUCCACUAGCUAAUACAGCAUUACCGUAUUUGUCAUGAAAAUCAGGUGUACGUUUCUGGUGGCUCUGCCUUGCCAACAGAGGAUUGAGCAUCA
# B14: chr9:107755404:107755405:-_ENSMUSG00000032582_ENSMUST00000035201|mus_hu|motif|central (ssRNA)
# RNA: GGGAGUUCUACAGUCCGACGAUCCUCUAUAAUCCAUAGAAGUACCAUCUCCACCCCUAUAGUCCAUAGGUGGUCCUUCUCGGUCCCGAAAAUCCCCAGAAUGUAUGUCCCUACCCCUGAAGUCCAACUGUGAUGAAUCUCUGCCAACAGAGGAUUGAGCAUCA
# B15: chr12:121221538:121221539:-_ENSG00000157837_ENST00000353487|hu_hu|motif|central (ssRNA)
# RNA: GGGAGUUCUACAGUCCGACGAUCAGGUGAGCAGGGUCUUGUUAAAUACUGGCACAUCGGGAGGAGAAGAAAAGCAAAAGCGGUCGUUGCAAGAACUGCUGUACAUAUUGUAAAAACUACUUGAACUGAGUCAAAGAAGAAGAACAACAGAGGAUUGAGCAUCA
# B16: chr3:88516089:88516090:+_ENSMUSG00000028060_ENSMUST00000029696|mus_mus|motif|central (ssRNA)
# RNA: GGGAGUUCUACAGUCCGACGAUCAUUGACCCAAUAGUAGUAAAAUACAAAUAAAACUUUCUUUACAACAGAGUUGAGGCGGUUCAUUUGGAAAAGGCUAGAUCAGGUCAAACAUAUGUAGCAAUGACUCUGUCCUGGUAUCUCCAACAGAGGAUUGAGCAUCA
# B17: chr8:80577299:80577300:+_ENSG00000104435_ENST00000220876|hu_hu|FALSE|FALSE (ssRNA)
# RNA: GGGAGUUCUACAGUCCGACGAUCGUAUUUUUUAACAAAAAUGUAAGUAUUUACAAAAUAAGAUCCAAGGUAUUUUUUAAACAUCAAGCAAAACAUUCUGCAAAGAGACCGCAUUGAUUUUUUUUAAUUUUUGAUUUUUUUUGUCAACAGAGGAUUGAGCAUCA
# B18: chr16:94913618:94913619:+_ENSMUSG00000022897_ENSMUST00000122284|mus_hu|motif|central (ssRNA)
# RNA: GGGAGUUCUACAGUCCGACGAUCGUCAUGUAAUGUGCAGGACCUGUAUUAGCAGAAAAUUGGUAUGUUGGAUGUCCAGCGGUGCCAGUCUCUUGGCGGGGAUUGGAGUAGACGGUCAAAUUAACGUCCAUAGCUCCAUUCUGUCAACAGAGGAUUGAGCAUCA
# B19: chr2:32088997:32088998:+_ENSMUSG00000039262_ENSMUST00000036691|mus_mus|FALSE|FALSE (ssRNA)
# RNA: GGGAGUUCUACAGUCCGACGAUCUCCCCCUUAAGGAAGCUUAGACCCAGAAGUGUUCUGUGAACUCUGAAUUUGAAAAUGCUAAACUUGGGAAUCAGACAAGGAAAGCAACUGUUAAGAGACCAGACUAAAUGCAGUCGGCAGCAACAGAGGAUUGAGCAUCA
# B20: chr3:9412954:9412955:+_ENSG00000134077_ENST00000452837|hu_mus|hu_hu_hu_mus_False|78_108 (ssRNA)
# RNA: GGGAGUUCUACAGUCCGACGAUCGGUUGAUACAUCCUCUUUGAUGGCUGGAUUUUCAUAAUAAUCUAAGAUAUGUGAAUCUGAAGUGCUGCUGGCAUGCUUUUUCUUACCAUCUUUCUCAUCUGCUUUGUCUCCUUGUCCACACAACAGAGGAUUGAGCAUCA
# B21: chr5:74425352:74425353:-_ENSMUSG00000054814_ENSMUST00000068058|mus_mus|FALSE|FALSE (ssRNA)
# RNA: GGGAGUUCUACAGUCCGACGAUCUUCCUGUUUCUUCUCUUCCUGCAGGAUGUCCGCAAUAGUGUUUAGCAAAUAAUUUAAGAACUCGUGAGCAUCCUGCUGCAUGUAGUUAUCAAAGAGAUCGUUCUCUUUCCUCAGCCUUGACAACAGAGGAUUGAGCAUCA
# B22: chr1:113244022:113244023:-_ENSG00000155366_ENST00000369637|hu_hu|FALSE|FALSE (ssRNA)
# RNA: GGGAGUUCUACAGUCCGACGAUCUAGGCGUGGCUCCCAGAGCGCUGGGAGGGAGGGCCCGUGCCACCACCUCGGGGCUAGAAAACAAUGCAGUCCUGGGCAGGAGGGAACUGAAAAUGGGAGCCUUCAGCAUGGAGCCCUCAGCAACAGAGGAUUGAGCAUCA
# Target: T1, UNK ZnF1-3
# Test: nsRBNS (natural sequence RNA bind-n-seq); RBNS binding buffer (assumed for nsRBNS): 25 mM Tris pH 7.5, 150 mM KCl, 3 mM MgCl2, 0.01% Triton X-100, 500 ug/ml BSA, 20 U/ml SUPERase-In, 4 C; UNK is unkempt and MSI1 is Musashi-1; names of the RNAs are library labels; protein concentration not given here; high values mean tight binding
row,Binder,binding signal
1,B1,0.832 enrichment R
2,B2,1.66 enrichment R
3,B3,1.43 enrichment R
4,B4,1.15 enrichment R
5,B5,0.928 enrichment R
6,B6,0.825 enrichment R
7,B7,1.21 enrichment R
8,B8,1.25 enrichment R
9,B9,0.678 enrichment R
10,B10,0.841 enrichment R
11,B11,1.5 enrichment R
12,B12,1.18 enrichment R
13,B13,0.708 enrichment R
14,B14,0.989 enrichment R
15,B15,2.8 enrichment R
16,B16,2.66 enrichment R
17,B17,1.97 enrichment R
18,B18,0.918 enrichment R
19,B19,1.8 enrichment R
20,B20,0.579 enrichment R
21,B21,0.72 enrichment R
22,B22,1.18 enrichment R
